The chains are these.
B1: LINE1-mini (parent)
chain: GGCAGAGCUCAACACAGCGUGGCAAAGUGGCUGUGGCUAGACUGCC

Read counts are not given, so values of variants with three or more changes are uncertain.

The variants in this data set derive from B1. Description: self-cleavage, relative activity (ratio to wild type); higher = more cleavage; in vitro, sequencing; the parent is a self-cleaving ribozyme.
On to A6C G30U A39C, for which the self-cleavage was 0.12.
The figure for A6G A14G C18A U34C is 0.03.
Take A6G C8A G17U U38G C42U: the self-cleavage amounted to 0.11.
Take A6C C10A G17C A24U U28C C31U: the self-cleavage turned out to be 0.01.
Regarding A6C G19U A26U, the self-cleavage was 0.82.
Turning to A6C G7C A26U A41G, the self-cleavage is 0.19.
Turning to A6G C10A A24U, the self-cleavage was 0.03.
As to A6G A16G G30C, the self-cleavage is 0.05.
For the variant A6C G27U U34A, the self-cleavage came to 0.05.
In the case of A6C G17U G44C, the self-cleavage stood at 0.05.
With A6C C8U G40U, the self-cleavage was 0.3.
Turning to A6C G19C G36A, the self-cleavage was determined as 0.2.
The figure for A6G A11G A25G is 0.01.
The figure for A6C G27U U32A G40U is 0; for A6C C10U C37U it is 0.03.
On to A6G A12G C13U U20A A25U, for which the self-cleavage is 0.02.
For the variant A6C G35C G40A, the self-cleavage was 0.08.
On to A6C G29A C42U, for which the self-cleavage worked out at 0.18.
A6C C8G C18U G29A U38C C46G: the self-cleavage was 0.01.
As for A6C U9C C13A C42A, the self-cleavage was 0.05.
As to A6C C18A C23U U28G G30U, the self-cleavage came to 0.19.
Take A6G C8A A24U G35C: the self-cleavage is 0.1.
The figure for A6G A39U G44U is 0.05; for A6G A16U C18U it is 0.06; for A6C C37G G40U it is 0.09.
In the case of A6C G7A C8A G33A A39G, the self-cleavage is 0.87.
As to A6G A12U C31G, the self-cleavage was 0.01.
In the case of A6C G19A U43C, the self-cleavage came out at 0.11.
The value for A6C G7U C8U was 0.27; that for A6C G7A C18U G30U G40C was 0.05; that for A6G A12U G27C was 0.03.
For A6C U34C U38G G44U, the self-cleavage was 0.01.
A6G A26C U34G: the self-cleavage stood at 0.01.
Regarding A6C C13U G35C C46A, the self-cleavage is 0.03.
The figure for A6C C18U G22A A26U C31U is 0.02; for A6C C10U G29U it is 0.14.
For the variant A6C U43A G44A, the self-cleavage came to 0.01.
Consider A6G C10A C15G C23U A25C G30U A39U G44U, for which the self-cleavage worked out at 0.
For A6C C37U A39C, the self-cleavage is 0.
With A6C C13A A14U, the self-cleavage came out at 0.16.
With A6G A26G C45G, the self-cleavage was 0.11.
A6G A16G U38A: the self-cleavage was 0.03.
On to A6C G17U G40A, for which the self-cleavage is 0.18.
Regarding A6G A12G C42G, the self-cleavage was determined as 0.01.
For the variant A6C C10A G21A G29U, the self-cleavage was determined as 0.05.
A6C G30C U34A: the self-cleavage is 0.05.
For A6G A26C U38G, the self-cleavage was 0.01.
With A6C C8U A11U C13A, the self-cleavage came out at 0.01.
A6C G19U G30U: the self-cleavage stood at 0.55.
In the case of A6C C31A A39G, the self-cleavage is 0.04.
Consider A6C C23A G40A, for which the self-cleavage stood at 0.06.
Take A6C C18U G21A A25U G29A: the self-cleavage was determined as 1.44.
For the variant A6G A26G C46U, the self-cleavage is 0.05.
As for A6G A11U C18U G29A A41U G44U C45A, the self-cleavage was 0.01.
The value for A6G C8U A12G was 0.15; that for A6G C10A C15U C46A was 0.04; that for A6C C15G G40C C46G was 0.01.
For A6C G21A G33A G35U, the self-cleavage was 0.04.
In the case of A6C C8G A14C C37A, the self-cleavage came out at 0.1.
In the case of A6C G17A C18U C31G, the self-cleavage came to 0.02.
As for A6C G17C A39C, the self-cleavage was determined as 0.48.
Consider A6C C18U A24U C31G C46G, for which the self-cleavage is 0.07.
For the variant A6C G21U G44C, the self-cleavage was 0.06.
The figure for A6G C10A A12C C46A is 0.01.
For A6C U34A C45U, the self-cleavage was 0.03.
The value for A6C G22U G40C was 0.1.
The figure for A6C C10U U20A is 0.08.
For the variant A6C C15A U20G G27U C42G, the self-cleavage is 0.05.
The figure for A6C G19A A24C is 0.46; for A6C G7C G19U G33A it is 0.24.
As for A6C U28A G30U G33A G44A, the self-cleavage was determined as 0.02.
As to A6C C15A A16U C31A, the self-cleavage was 0.05.
In the case of A6C G19U A25C U34G C37G U38A U43C, the self-cleavage amounted to 0.03.
Take A6G A11C A39C G44U: the self-cleavage amounted to 0.02.
For the variant A6C G27C G29C C45G, the self-cleavage amounted to 0.09.
As for A6C G22C A26U G27U G33U A39U C46G, the self-cleavage came to 0.05.
The value for A6C C10A G19A C45G was 0.01.
The value for A6C C13U G35U was 0.07; that for A6C G22U A24G U28C was 0.18.
The figure for A6C G40U U43A is 0.04.
A6C C23U G35A: the self-cleavage turned out to be 0.14.
For A6G C8A U9A G22A U32G, the self-cleavage came out at 0.1.
The value for A6G C8G C10A C18U A41U was 0.01; that for A6C G7U C8U C13G C18G G44A was 0.28; that for A6C C15G A41U was 0.02.
The value for A6C G7C U32G C46A was 0.09; that for A6G A12U G22U was 0.07.
The figure for A6C C15A G30U C45G is 0.01; for A6G C8A G19U U38C C42A it is 0.06.
As for A6C C8U G36C C42A G44A, the self-cleavage came out at 0.
As for A6G A24G A25U C46G, the self-cleavage turned out to be 0.22.
The figure for A6C C10A A14G C15U G29U G35U is 0.03; for A6G A41C U43C it is 0.03.
The figure for A6C C18G C31G is 0.04; for A6C G19A G29C G30C it is 0.46.
In the case of A6C U20C U28C C45U, the self-cleavage is 0.59.
Take A6G A14U G17A: the self-cleavage worked out at 0.09.
Take A6C C15U G22A C31A U38A U43A: the self-cleavage turned out to be 0.01.
Consider A6C C10G A14U U34A, for which the self-cleavage came to 0.02.
In the case of A6C G35C G44U, the self-cleavage came to 0.03.
Take A6C U20G G30U U32C: the self-cleavage worked out at 0.04.
Regarding A6C G7U C8A C10G C18A U38A A41C C42G, the self-cleavage came out at 0.01.
As to A6C G22U U32C G33U, the self-cleavage came to 0.03.
In the case of A6G A12G C18U C23U, the self-cleavage is 0.01.
Consider A6C G21C G44U, for which the self-cleavage was 0.12.
The value for A6C C10A C31U U32G U38C C46G was 0; that for A6C G19A C23U was 0.85.
A6G A14G G36A: the self-cleavage turned out to be 0.07.
The figure for A6C C8U C15A C18U G33U G35U is 0.01.
In the case of A6G A12C G19A, the self-cleavage was 0.
As to A6C G17A A39C G40A, the self-cleavage worked out at 0.1.
Take A6C U9A U20C A25U G33U: the self-cleavage is 0.1.
Take A6C G17C A24G G35U G44A: the self-cleavage turned out to be 0.02.
The figure for A6C U20A G21C is 0.11.
With A6G C8A G21A, the self-cleavage worked out at 0.65.
Regarding A6G C8A G21C, the self-cleavage was 0.14.
A6G C8A U32G G35C: the self-cleavage is 0.07.
For the variant A6C C31U G36A G40A, the self-cleavage amounted to 0.02.
For the variant A6G A11C A14G U34C, the self-cleavage was determined as 0.06.
Regarding A6C U9A A14U C23U A26C G30A G33U, the self-cleavage was 0.08.
On to A6C C23A G40C C42U, for which the self-cleavage is 0.14.
The figure for A6C C13U G33U is 0.05; for A6C G27U G29U it is 0.1.
For the variant A6C G7A C18A U32C, the self-cleavage turned out to be 0.01.
A6C U20C G33U G35U G36A: the self-cleavage stood at 0.04.
The value for A6G A25C G29C was 0.
For A6G C8U A41C, the self-cleavage turned out to be 0.25.
Turning to A6G C8G A16C, the self-cleavage turned out to be 0.
Consider A6G C10A C45G, for which the self-cleavage worked out at 0.02.
In the case of A6G A26C G40C, the self-cleavage stood at 0.1.
In the case of A6G C8U U43G C46A, the self-cleavage was found to be 0.05.
Turning to A6C G19A G21U C31U C37G, the self-cleavage worked out at 0.01.
For the variant A6G A12U G22U C31A U32A, the self-cleavage was found to be 0.02.
Regarding A6C C13U C18A, the self-cleavage came to 0.04.
Consider A6C C10A C18U A39G, for which the self-cleavage stood at 0.01.
In the case of A6C G44A C46U, the self-cleavage was determined as 0.04.
In the case of A6G C8G C10G A11G C46U, the self-cleavage was found to be 0.02.
Take A6G A16U U34A G40A: the self-cleavage came to 0.02.
Regarding A6C G30U C45A, the self-cleavage turned out to be 0.21.
For A6C G7A G33A G40C C42A, the self-cleavage was found to be 0.07.
In the case of A6C C10A G19A A24G A25U, the self-cleavage worked out at 0.24.
In the case of A6C G19C G33U G35C A41C, the self-cleavage stood at 0.05.
For the variant A6C G27C G33U C37U U38A A41U C42A, the self-cleavage amounted to 0.02.
Regarding A6C C18A G22U U32A G40C, the self-cleavage is 0.
The figure for A6G A11U C15A G21C is 0.01.
For the variant A6C C10A G27U G40A, the self-cleavage is 0.03.
The figure for A6C G7U A14C is 0.04; for A6G C8A A25G G33U it is 0.2.
For A6C C8G G33A U38A, the self-cleavage was 0.02.
Take A6C C18U C23U: the self-cleavage was determined as 2.05.
With A6C C13U G22U C42U, the self-cleavage was 0.12.
Turning to A6G C8A G27U, the self-cleavage worked out at 0.12.
A6C C10A G22U A24C C31U: the self-cleavage came to 0.01.
The figure for A6C G35U C45A is 0.02; for A6C U20G A41U C42A it is 0.07; for A6C G17A C42U it is 0.11.
With A6C C8G G30C U43C, the self-cleavage stood at 0.02.
The figure for A6G A14U A16C U28A A39G G40A U43G is 0.08.
On to A6G C8U A16C U38A, for which the self-cleavage turned out to be 0.
For the variant A6C C10U G36A, the self-cleavage worked out at 0.01.
The figure for A6C C10A C15A C18U G30A is 0.01; for A6C U9C C18U it is 0.03.
On to A6G A11C G19A C23U, for which the self-cleavage was determined as 0.02.
Consider A6G A24U G40U C46A, for which the self-cleavage was 0.26.
As for A6G C8A A26G U34G, the self-cleavage is 0.15.
Turning to A6G A25C C37A, the self-cleavage is 0.02.
In the case of A6C G35C C42A G44C, the self-cleavage is 0.02.

(Values after the RNAGym collection of RNA variant scans (doi:10.7554/elife.90254).)
